Test results: the supplement of paper PMC3334620
The full ranking holds about 33,000 sequences; the median of “E-score (-0.5 to 0.5)” is about -0.04, and the highest 2% start at about 0.36. The list shows a part of the results.

target: T1, Hmlalpha2 (UniProt P0CY09); test: PBM E-score (8-mer binding enrichment) (E-score (-0.5 to 0.5)); higher = stronger / more preferred TF binding; most listed sequences are background and not binding sites; conditions: protein concentration: 200 nM; construct: GST-full length
T1 sequence: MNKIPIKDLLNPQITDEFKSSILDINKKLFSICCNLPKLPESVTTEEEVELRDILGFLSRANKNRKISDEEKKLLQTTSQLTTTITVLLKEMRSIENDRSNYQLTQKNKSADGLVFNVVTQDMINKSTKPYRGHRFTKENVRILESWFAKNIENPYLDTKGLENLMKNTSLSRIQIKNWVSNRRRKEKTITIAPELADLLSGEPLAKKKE
Method in brief: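 PURExpress in vitro transcription/translation supplied GST-tagged yeast transcription factors, either full-length or DNA-binding domain. Applied at about 100-200 nM to universal all-10-mer Agilent arrays double-stranded by primer extension, the bound protein was detected with fluorescent anti-GST. E-scores, modified Wilcoxon-Mann-Whitney statistics, were given by the Universal PBM Analysis Suite to ungapped eight-base words pooled with their reverse complements after masliner normalisation.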

Point of comparison: AACTTTGG, “PBM E-score” value -0.0327. Against it:
- ATATGACG — higher, 0.105
- AAATCGTC — higher, -0.0199
- ACCACAGA — lower, -0.0813
- AGAGCCAG — lower, -0.181
- CACCATTA — lower, -0.0406
- ACTGCTTA — higher, 0.0138
- ATTGCACC — higher, 0.0314
- CCTTGATA — higher, 0.0589
- ATATTAAT — higher, 0.217
- GGCGCTTA — lower, -0.252
- ATCTAGCA — higher, 0.0441
- ACGACAAC — higher, 0.286
- AGCGCTTA — lower, -0.0782
- ATGTGAAC — higher, 0.148
- TAAATTAA — higher, 0.211
- AGAGGCTG — lower, -0.0969
- AAAGTAGG — higher, 0.146
- AACTCTCT — lower, -0.107
- GCCTTGGA — lower, -0.184
- GTTGACTA — higher, -0.0215
- ACTGCCCG — higher, 0.0627
- TAGGCCCA — lower, -0.14
- CTCAAACA — higher, 0.243
- ATATCTGC — higher, 0.015
- ACGTCCCT — higher, 0.163
- ACGATAAA — higher, 0.108
- CCTCAGAC — lower, -0.217
- ACAATACC — higher, 0.201
- GGGGTACA — lower, -0.0743
- CCAAATCG — lower, -0.0556
- AACAGGTG — higher, 0.184
- ATGTTGAG — higher, 0.33
- ACCACATC — higher, 0.0419
- GCAATTCC — lower, -0.143
- AGCAGTAC — higher, 0.0922
- ACCACGTC — lower, -0.0362
- CTCTCGTA — higher, 0.0261
- GCACCCCC — lower, -0.216
- ACCTGACG — lower, -0.213
- ACCGGGTG — lower, -0.159
- ACCGTGAT — lower, -0.0701
- TGGTCACA — lower, -0.0861
- GGGGAACC — lower, -0.213
- AGCAACCT — lower, -0.0897
- CTGACCAA — lower, -0.0338
- GATTAGCA — higher, 0.0131
- CTGCCTCA — lower, -0.209
- ATTGACCA — higher, -0.0224
- TCGCAACA — higher, 0.0939
- CGCTAATA — higher, 0.0277
- GTTAAACA — higher, 0.375
- AGCCCCGC — lower, -0.0401
- GATGCCCC — lower, -0.404
- AAGTGGCA — lower, -0.149
- AAACAAGT — higher, 0.207
- CTGGGGCC — lower, -0.423
- GCAATGGA — lower, -0.0902
- ACTACCGG — lower, -0.24
- TCAATTGA — lower, -0.0515
- GCAAGAAC — higher, 0.202
- CATCGGTC — lower, -0.163
- CCAGCGCG — lower, -0.0525
- GCGCCCGC — lower, -0.181
- GCGATCCC — lower, -0.13
- AACTGAAA — higher, 0.103
- CCCAAGAC — lower, -0.109
- CTCTCGCA — lower, -0.236
- CATCTTCA — lower, -0.191
- CAGAGATG — higher, 0.117
- CCTGACTC — lower, -0.243
- GCCCATCA — lower, -0.114
- AGACCTTC — lower, -0.111
- GTATCAAC — higher, 0.0736
- CAGGATTA — higher, 0.02
- CGAGCACC — lower, -0.162
- ACGACGAT — lower, -0.0531
- CTTGGGCC — lower, -0.304
- AAATATGG — higher, -0.00812
- ATCAAGGG — lower, -0.0776
- ACTGAGAT — lower, -0.0538
- AACTAAAG — higher, 0.262
- AGGGAACA — higher, -0.0232
- TACGCATA — higher, 0.32
- TATCGAAA — higher, 0.0459
- CTTGTCGC — lower, -0.0405
- AAACATTA — higher, 0.197
- CCGCTTAG — lower, -0.226
- CCCACAGG — lower, -0.23
- CGGCCGGA — lower, -0.205
- TCTAACCA — higher, 0.123
- CCTACAGC — lower, -0.164
- GCTCGCAC — lower, -0.273
- AAGCACGG — lower, -0.0458
- TGAGGACA — higher, 0.0495
- AAGTCAAA — higher, 0.0282
- AATTTTTG — higher, 0.0384
- CCCTCACG — lower, -0.238
- AATCGTGG — higher, 0.194
- AAAAGGAG — lower, -0.141
- GGGTTGAC — lower, -0.145
- GCATGCCC — lower, -0.0601
- ATCCAGTA — higher, 0.101
- AGACGACG — lower, -0.129
- CCCTTGTA — higher, 0.328
- GTGATTTA — higher, 0.18
- TAGGCACA — lower, -0.0943
- CAGAGATC — lower, -0.201
- TCCGGGAA — lower, -0.0573
- ATGCCCTC — lower, -0.0805
- GAGCTCGA — higher, 0.0294
- CTACAGAA — higher, 0.0289
- ATCATCGC — higher, 0.00351
- CCTTTGTC — higher, -0.0263
- CAGAAATA — higher, 0.0979
- AACGGCAC — lower, -0.112
- CTCCGAAG — lower, -0.222
- TATATGAA — higher, 0.16
- GAGGTATA — higher, 0.0243
- ACGATGCA — higher, 0.00955
- ATAGTAGA — lower, -0.0426
- ACTGTTGA — higher, 0.0581
- AGTATCTG — lower, -0.138
- AAGTTCCT — lower, -0.102
- AGTACTAA — higher, 0.173
- AGTCCGTC — lower, -0.103
- AAGACACG — higher, 0.373
- AGATTCCA — higher, 0.0918
- ATGTTCAA — higher, 0.296
- CGTGGTTA — higher, 0.0938
- CGAAAGCC — lower, -0.236
- CCGCACGG — lower, -0.268
- CAGGTTGG — lower, -0.0606
- ACAATGCA — higher, 0.258
- CCGCCTTA — higher, -0.0118
- ATACCGAA — higher, 0.0865
- AGGATATG — lower, -0.0728
- ATTCTATG — higher, 0.0697
- TGAACAAA — higher, 0.275
- ATACGGGC — lower, -0.0779
- CAGTCTGG — lower, -0.176
- CAACTCAC — higher, 0.0622
- GCAGAATA — lower, -0.0524
- ACGAGCCC — lower, -0.0622
- CATCCAAG — lower, -0.159
- GCTAGTTA — higher, 0.0263
- AAGGGTAG — lower, -0.0858
- AGCACGAT — higher, 0.147
- CCTTCAAG — higher, 0.00645
- CTTTGCCC — lower, -0.119
- AGCGCGGA — lower, -0.127
- ACGCACTA — higher, 0.111
- ATCTATTA — higher, 0.133
- AGACCCCC — lower, -0.0538
- ATGTATGG — higher, 0.181
- CCCCTGAA — lower, -0.062
- AGGTCGAC — higher, -0.0255
- AGGCGGCC — lower, -0.381
- AGACCACC — lower, -0.238
- ACTTGCAC — higher, 0.0364
- AAGTTCAT — higher, 0.0157
- AGGGAGTA — lower, -0.0411
- CACGTTGC — higher, 0.14
- GGACCCCC — lower, -0.405
- GAGCGCGC — lower, -0.225
- AAACGTAT — higher, 0.278
- AAATGTGG — higher, 0.0439
- GCGCAAAA — higher, 0.0241
- ACCGTAAA — higher, 0.237
- ACTGGCAA — lower, -0.0631
- GGCCAGAC — lower, -0.105
- GCGGTTGA — higher, 0.117
- GGATTAAA — higher, 0.0541
- ATTTAGTA — higher, 0.185
- ATGGGGCG — higher, -0.0324
- TCTGGCCA — higher, 0.0476
- ATCGACGC — higher, 0.182
- CCTTAGCA — lower, -0.0948
- AGAACTGA — higher, 0.114
- GCGATACC — lower, -0.315
- ACACTCCT — higher, 0.122
- AATGATAA — higher, 0.228
- AATTCCAC — higher, -0.0149
- TATACGAA — higher, 0.124
- GGCCAACC — lower, -0.156
- AATAACTG — higher, 0.0798
- GCTCGAGC — higher, 0.209
- ACAGGCTG — higher, 0.033
- ACGGGAAA — higher, -0.0106
- GACAAGGC — higher, 0.095
- ATAGGTCA — higher, 0.0648
- AGGGGGTG — lower, -0.192
- CGCCTGAA — higher, 0.00827
- ACAATGAC — higher, 0.116
- GAATTTAC — higher, 0.243
- CAGACTGA — higher, -0.00466
- CTATTTCC — higher, 0.0509
- CACACCCC — lower, -0.0498
- ACATACGT — higher, 0.249
- TATATACA — higher, 0.389
- ACCCGGCG — lower, -0.0988
- AGCAGACT — higher, 0.169
- ACCCAAAA — lower, -0.0527
- GGTACGTA — higher, 0.199
- CAAGGCAA — higher, -0.0303
- GCCTTCGC — lower, -0.303
- CGTGCGAA — higher, 0.00678
- CCATATCC — lower, -0.3
- AGGGCGAT — lower, -0.047
- AACTTCTT — higher, 0.163
- CATGTGAC — higher, 0.19
- AACATAGA — higher, 0.284
- ACCGCAGG — lower, -0.213
- CGCCCTCA — lower, -0.218
- CGCAAGCA — lower, -0.0503
- ACATGTAT — higher, 0.454
- CTTAACCA — higher, 0.0416
- ATGAAGGC — lower, -0.0496
- AGATGACC — lower, -0.174
